According to PubChem BioAssay AID1508623 (National Center for Advancing Translational Sciences (NCATS), 2021):
About 450 (0.94%) of roughly 48,000 compounds were called active. Another 19% or so got no clear call; they are omitted. The call rests on the fitted dose curve; in most records, active means well fitted inhibition curve with a large enough effect; inconclusive means small, poorly fitted or top-dose-only effect; inactive means no such curve, though single readings can be large or run the other way. The list shows a part of the results.

assay: Primary qHTS for Identification of Small Molecule Inhibitors of Huntingtin Promoter Activity; conditions: HEK293 HTT promoter firefly luciferase reporter (activity 0% = vehicle and -100% = no light), 24 h; series mostly up to 57.5 µM; activity change, negative = inhibition: at the top concentration; further: nearly all actives have a fitted effect of over 50% in size
Summary of the method: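 Firefly luciferase signal from promoter-reporter HEK293 cells was scaled between vehicle (0%) and zero RLU (-100%). Compounds were tested at final concentrations of up to 57.5 uM over 24 h at 37 degrees C. PTC124 at 50 uM final served as control inhibitor.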

Activity change, negative = inhibition, inactive:
CCOc1ccc(CNS(=O)(=O)c2ccc3[nH]c4c(c3c2)CCCC4)cc1OC -28%
Cc1c(CNCc2ccc(Cl)cc2)c(C(=O)O)c(C)n1Cc1ccc(F)cc1 -28.3%
COc1ccc(NC(=O)CSc2nc3nc(C)cc(C)n3n2)cc1 -6.21%
COc1cccc(CNC(=O)CCc2nnc3n(C)c(=O)c4sccc4n23)c1 7.7%
CCCN(CCC)CCCNC(=O)C1CCC(CNS(=O)(=O)c2ccc(NC(C)=O)cc2)CC1 (stereo unspecified) -2.37%
COc1ccc(NC(=O)Cn2c(CCC(=O)O)ccc2-c2ccccc2)cc1Cl -13.3%
CCOC(=O)c1c(C)oc2nc(C)nc(Nc3cccc(OC)c3)c12 3.59%
Nc1ccc(S(=O)(=O)Nc2ccccn2)cc1
CCOc1ccc(CC(=O)Nc2c(C(=O)c3ccc(F)cc3)oc3ccccc23)cc1OCC -7.48%
COC(=O)c1ccc(C2Nc3c(C)cc(C)cc3C3C=CCC32)cc1 (stereo unspecified) -6.38%
COc1ccc(C(CNC(=O)COc2ccc(C)c(C)c2)N2CCCCC2)cc1 (stereo unspecified) -18.5%
Cc1cc(C)c(NC(=O)Cn2nc3c(cc2=O)CCCC3)c(C)c1 2.25%
COCCCN1C(=O)N(c2ccccc2)C(=O)C1CC(=O)Nc1ccc(F)cc1 (stereo unspecified) -20.5%
COc1cc(OC)cc(C(=O)Nc2cc3nn(-c4ccccc4)nc3cc2Cl)c1 24%
CCOc1ccc(-c2oc3ccccc3c(=O)c2O)cc1OCC 24.7%
O=C(Nc1ccc(S(=O)(=O)Nc2ccccc2)cc1)N1CCCC1 -18.4%
COc1ccccc1NC(=O)C1=C(C)Nc2c(C(=O)Nc3ccc(F)cc3)cnn2C1c1ccc(Cl)cc1 (stereo unspecified) -27.5%
COc1ccc(-c2noc(-c3ccc(NCc4ccc(C)cc4)c([N+](=O)[O-])c3)n2)cc1OC -3.02%
Cn1c(=O)c2c(nc(SCC(=O)Nc3ccc(OC(F)(F)F)cc3)n2Cc2cccc(C(F)(F)F)c2)n(C)c1=O -24.4%
Cc1ccc(S(=O)(=O)Nc2cc3c(cc2C)n(C)c(=O)c(=O)n3C)cc1 -10%
O=S1(=O)c2cccc3cccc(c23)N1CCCN1CCN(c2ccc(F)cc2)CC1 -12.8%
O=C(Cn1c(=O)n(-c2ccc(F)cc2)c(=O)c2sc3ccccc3c21)N1CCCC1 -8.22%
CCOC(=O)c1sc2ccccc2c1S(=O)(=O)Nc1c(C)cccc1C -12.6%
Cc1ccc(CSC2=Nc3ccccc3C3=NC(CCC(=O)N4CCN(c5ccccc5)CC4)C(=O)N23)cc1 (stereo unspecified) 10.2%
CCOC(=O)c1c(N)n(-c2ccc(C)c(C)c2)c2nc3ccccc3nc12 1.06%
Cc1ccccc1NC(=O)CSc1nc(-c2ccc(F)cc2)c2cccc(C)c2n1 20.2%
COc1cc(CNC(=O)c2cc(-c3ccccc3)n[nH]2)cc(OC)c1OC -12.6%
COc1ccc(-n2nc(C(=O)N3CCC(C)CC3)c3c4ccccc4n(C)c3c2=O)cc1Cl -13.9%
CCc1nn(CC(=O)NCCc2ccc(OC)cc2OC)c(=O)c2cc3sccc3n12 -6.96%
COc1cccc(CNC(=O)Cn2cc3c(n2)-c2c(oc(C(=O)N4CCCC4)c2C)CC3)c1OC -22.7%
CCCc1noc(-c2ccc(N3CCCCC3)c([N+](=O)[O-])c2)n1 -4.97%
COc1cc(NC(=O)Cn2ncc3c(=O)oc4ccccc4c32)cc(OC)c1OC 1.83%
CN(C)S(=O)(=O)N(CC(=O)NCCSCc1ccccc1Cl)c1ccccc1 -22%
Cc1cccc(N2CCN(S(=O)(=O)c3cc(Br)cc4c3N(C(=O)C3CC3)CC4)CC2C)c1 (stereo unspecified) 5.22%
COc1ccc2c(Sc3ccccc3)c(C(=O)NCc3cccc(OC)c3OC)[nH]c2c1 -1.75%
CCOc1ccc(CCNC(=O)CCCc2nnc3n(CC(C)C)c(=O)c4sccc4n23)cc1 -17.4%
CCOC(=O)c1cc(S(=O)(=O)Nc2ccc(OC)c(Cl)c2)[nH]n1 -12.1%
CCOC(=O)C1(C)C=C(Nc2ccc(C(N)=O)cc2)C(=O)N1c1ccccc1 (stereo unspecified) 0.319%
CN1C(=O)Cc2cc(S(=O)(=O)CCC(=O)Nc3cccc(C(F)(F)F)c3)ccc21 0%
CC(C)OCCCn1c(SCc2cccc(Br)c2)nc2c(sc3ccccc32)c1=O -11.4%
Cc1ccc(OC(=O)c2cc(-c3ccccc3)nc3ccc(C)cc23)cc1 -12%
CC(=O)N1c2ccc(S(=O)(=O)NCC3CCC(C(=O)NCCC(C)C)CC3)cc2CC1C (stereo unspecified) -7.17%
COc1ccc(-c2cc(NCc3ccc(F)cc3)n3cnnc3n2)cc1 -27.2%
Cc1cc(OCC(=O)NCC2(N3CCN(C)CC3)CCCCC2)cc(C)c1Cl -17.8%
O=C(Cc1ccccc1)Nc1sc2c(c1C(=O)Nc1ccccc1Cl)CCC2 -18.9%
O=c1[nH]c(=O)n([C@H]2O[C@H](CO)[C@@H](O)[C@@H]2O)cc1/C=C\Br 5.03%
Cc1ccc(NC(=O)CCc2nnc3n(CC(C)C)c(=O)c4ccccc4n23)cc1C -1.11%
Cc1ccc(-n2nc3c(N4CCC(C(=O)N5CCCCC5)CC4)nnc(C)c3c2C)cc1 -22.6%
CCCN1C(=O)C(Cc2nc3ccccc3c(=O)n2CC)c2ccccc21 (stereo unspecified) -8.06%
CCCc1cc(N2CCN(c3cc(Cl)ccc3C)CC2)n2cnnc2n1 -30.3%
COc1ccc(CNC(=O)Cn2nc(C)c3nn(-c4ccc(Cl)cc4)c(C)c3c2=O)cc1 -5.93%
O=S(=O)(c1ccccc1)c1nnn2c1nc(NCc1cccs1)c1sccc12 0.143%
CCCOc1ccc(N2CC(C(=O)Nc3cccc(Cl)c3Cl)CC2=O)cc1 (stereo unspecified) -3.56%
Cc1ccc2oc(C(=O)Nc3c(C(=O)Nc4ccccc4)oc4ccccc34)cc(=O)c2c1 -12.7% [at 11.5 µM]
Cc1ccc(NC(=O)CCn2cccn2)cc1Cl 18%
COc1ccc(NC(=O)Cn2c(=O)n(-c3ccccc3)c(=O)c3c4c(sc32)CCCC4)cc1 -9.07%
CCCCN(C)c1nnc(NC(=O)Nc2cccc(C(C)=O)c2)s1 -1.38%
COC(=O)c1c(NC(=O)c2cc3nc(-c4ccc(OC)cc4)cc(C(F)(F)F)n3n2)sc2c1CCCC2 -15.6%
Cc1ccc(NC2=CC(c3ccccc3F)N(c3ccc(C)cc3)C2=O)cc1 (stereo unspecified) -21.6%
CCOc1ccccc1NC(=O)C(Cc1ccccc1)NS(=O)(=O)c1ccc2c(c1)oc(=O)n2C (stereo unspecified) -17.2%
O=C(CN1C=NS(=O)(=O)c2ccccc21)Nc1ccc(F)cc1 -3.66%
